Measured values: the supplement of paper PMC4967469
By IC50 is meant the dose at which the fit gives 50% viability; a fit beyond the top or the lowest dose is shown as a bound at that dose. The AUC spans the tested range (256-fold, ending at the top dose) of the same fit; the more sensitive the line, the further below 1. For some of these results: Where the top dose is marked as inferred, it was derived from the fitted curves, not read from the paper.

Assays:
Assay in all cases: Viability of human cancer cell lines after 72 h of drug (GDSC screen)
[1] = compound: Cc1cnc(Nc2ccc(OCCN3CCCC3)cc2)nc1Nc1cccc(S(=O)(=O)NC(C)(C)C)c1 [TG101348]; conditions: top dose 10.24 µM
Protocol: (§1)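 Human cancer cell lines in 384-well plates, medium with 10% serum, drug for 72 h over a 256-fold dose range (nine 2-fold or five 4-fold steps up to the top dose). Adherent lines were fixed and stained with the nucleic acid dye Syto60, suspension lines read with resazurin; signal relative to control wells, capped at 0 and 100%. One two-parameter sigmoid per drug and line, fitted in a mixed model over all curves with the slope shared within a line.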

[2] = compound: C=CC(=O)Nc1cc(-n2c(=O)ccc3cnc4ccc(-c5ccc(NS(C)(=O)=O)cc5)cc4c32)ccc1C [BMX-IN-1 (QL-XII-61)]; conditions: top dose 10 µM; top dose inferred
Protocol: as §1

[3] = compound: CN(C)Cc1cccc(N=C(c2ccccc2)c2c(O)[nH]c3cc(C(=O)N(C)C)ccc23)c1 [BIX02189]; conditions: top dose 20 µM; top dose inferred
Protocol: as §1

[4] = compound: CCc1cc(-c2n[nH]c(C)c2-c2ccc3c(c2)OCCO3)c(O)cc1O [CCT018159]; conditions: top dose 10 µM; top dose inferred
Protocol: as §1

[5] = compound: C=CCNC1=C2C[C@@H](C)C[C@H](OC)[C@H](O)[C@@H](C)/C=C(\C)[C@H](OC(N)=O)[C@@H](OC)/C=C\C=C(/C)C(=O)NC(=CC1=O)C2=O [17-AAG]; conditions: top dose 1 µM
Protocol: as §1

[6] = compound: COc1cccc2cc(-c3nc([C@H]4CC[C@H](C(=O)O)CC4)n4ncnc(N)c34)[nH]c12 [OSI-027]; conditions: top dose 20 µM
Protocol: as §1

[7] = compound: O=C(c1ccc(C(=O)N2CCC(N3CCCC3)CC2)c(Nc2ccccc2)c1)N1CCC(N2CCCC2)CC1 [UNC1215]; conditions: top dose 1 µM; top dose inferred
Protocol: as §1

[8] = compound: COC(=O)CNC(=O)C(=O)OC [Dimethyloxalylglycine]; conditions: top dose 4000 µM; top dose inferred
Protocol: as §1

[9] = compound: Cc1cnc(Nc2ccc(F)cc2Cl)nc1-c1c[nH]c(C(=O)N[C@H](CO)c2cccc(Cl)c2)c1 [VX-11e]; conditions: top dose 5.12 µM; top dose inferred
Protocol: as §1

[10] = compound: CS(=O)(=O)c1ccc(C(=O)Nc2ccc(Cl)c(-c3ccccn3)c2)c(Cl)c1 [Vismodegib]; conditions: top dose 10 µM; top dose inferred
Protocol: as §1

[11] = compound: COc1cccc2c1C(=O)c1c(O)c3c(c(O)c1C2=O)C[C@@](O)(C(=O)CO)C[C@@H]3O[C@H]1C[C@H](N)[C@H](O)[C@H](C)O1 [Doxorubicin]; conditions: top dose 1.024 µM
Protocol: as §1

Cell Line	AUC [1]	IC50 [1]	AUC [2]	IC50 [2]	AUC [3]	IC50 [3]	AUC [4]	IC50 [4]	AUC [5]	IC50 [5]	AUC [6]	IC50 [6]	AUC [7]	IC50 [7]	AUC [8]	IC50 [8]	AUC [9]	IC50 [9]	AUC [10]	IC50 [10]	AUC [11]	IC50 [11]
NCI-H1944 (lung adenocarcinoma, adherent)	0.757	3.75 µM	0.961	> 10 µM	0.957	> 20 µM	0.842	7.72 µM	0.512	0.0676 µM	0.658	3.53 µM	0.984	> 1 µM	0.113	< 15.6 µM	0.892	> 5.12 µM	0.985	> 10 µM	0.577	0.106 µM
NCI-H1975 (lung adenocarcinoma, adherent)	0.779	4.81 µM	0.98	> 10 µM	0.952	> 20 µM	0.786	5 µM	0.441	0.0422 µM	0.719	5.77 µM	0.981	> 1 µM	0.303	63.8 µM	0.917	> 5.12 µM	0.969	> 10 µM	0.496	0.0622 µM
NCI-H1993 (lung adenocarcinoma, adherent)	0.897	> 10.2 µM	0.918	> 10 µM	0.979	> 20 µM	0.799	6.66 µM	0.92	> 1 µM	0.818	16.2 µM	0.981	> 1 µM	0.521	290 µM	0.898	> 5.12 µM	0.965	> 10 µM	0.877	> 1.02 µM
NCI-H2087 (lung adenocarcinoma, semi-adherent)	0.936	> 10.2 µM	0.984	> 10 µM	0.93	> 20 µM	0.905	> 10 µM	0.619	0.136 µM	0.65	3.37 µM	0.984	> 1 µM	0.374	109 µM	0.833	3.65 µM	0.984	> 10 µM	0.465	0.0509 µM
NCI-H2110 (non-small cell lung carcinoma, adherent)	0.887	> 10.2 µM	0.892	> 10 µM	0.823	12.1 µM	0.959	> 10 µM	0.533	0.0771 µM	0.722	5.42 µM	0.985	> 1 µM	0.383	118 µM	0.71	1.28 µM	0.973	> 10 µM	0.198	0.00789 µM
NCI-H2141 (small cell lung carcinoma, suspension)	0.895	> 10.2 µM	0.908	> 10 µM	0.982	> 20 µM	0.982	> 10 µM	0.978	> 1 µM	0.707	4.7 µM	0.973	> 1 µM	0.571	389 µM	0.99	> 5.12 µM	0.991	> 10 µM	0.827	0.602 µM
NCI-H2291 (lung adenocarcinoma, adherent)	0.984	> 10.2 µM	0.956	> 10 µM	0.977	> 20 µM	0.926	> 10 µM	0.734	0.382 µM	0.982	> 20 µM	0.982	> 1 µM	0.826	3760 µM	0.984	> 5.12 µM	0.983	> 10 µM	0.971	> 1.02 µM
NCI-H2347 (lung adenocarcinoma, adherent)	0.895	> 10.2 µM	0.911	> 10 µM	0.944	> 20 µM	0.857	> 10 µM	0.639	0.166 µM	0.668	4.08 µM	0.977	> 1 µM	0.386	114 µM	0.97	> 5.12 µM	0.983	> 10 µM	0.623	0.15 µM
NCI-SNU-5 (stomach, suspension)	0.989	> 10.2 µM	0.988	> 10 µM	0.989	> 20 µM	0.86	8.57 µM	0.418	0.0373 µM	0.941	> 20 µM	0.979	> 1 µM	0.872	3890 µM	0.989	> 5.12 µM	0.988	> 10 µM	0.813	0.561 µM
NMC-G1 (glioma, adherent)	0.803	6.5 µM	0.87	> 10 µM	0.895	> 20 µM	0.913	> 10 µM	0.716	0.298 µM	0.527	1.5 µM	0.978	> 1 µM	0.58	435 µM	0.949	> 5.12 µM	0.978	> 10 µM	0.484	0.0574 µM
